Test results reported in PMC4336329 (PLoS ONE, 2015).
Among all 310,000 compounds or so, about 14,000 (4.5%) showed an effect of 50% or more. The effect is printed as a negative number. The list shows a part of the results.

target: human ether-à-go-go-related gene (hERG) potassium channel (human, UniProt Q12809); assay: primary screen, population patch clamp on CHO cells stably expressing hERG
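Further: peak tail current of the secondary pulse compared with the same well before compound.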

Sequence of human ether-à-go-go-related gene (hERG) potassium channel (Q12809 whole entry, looked up): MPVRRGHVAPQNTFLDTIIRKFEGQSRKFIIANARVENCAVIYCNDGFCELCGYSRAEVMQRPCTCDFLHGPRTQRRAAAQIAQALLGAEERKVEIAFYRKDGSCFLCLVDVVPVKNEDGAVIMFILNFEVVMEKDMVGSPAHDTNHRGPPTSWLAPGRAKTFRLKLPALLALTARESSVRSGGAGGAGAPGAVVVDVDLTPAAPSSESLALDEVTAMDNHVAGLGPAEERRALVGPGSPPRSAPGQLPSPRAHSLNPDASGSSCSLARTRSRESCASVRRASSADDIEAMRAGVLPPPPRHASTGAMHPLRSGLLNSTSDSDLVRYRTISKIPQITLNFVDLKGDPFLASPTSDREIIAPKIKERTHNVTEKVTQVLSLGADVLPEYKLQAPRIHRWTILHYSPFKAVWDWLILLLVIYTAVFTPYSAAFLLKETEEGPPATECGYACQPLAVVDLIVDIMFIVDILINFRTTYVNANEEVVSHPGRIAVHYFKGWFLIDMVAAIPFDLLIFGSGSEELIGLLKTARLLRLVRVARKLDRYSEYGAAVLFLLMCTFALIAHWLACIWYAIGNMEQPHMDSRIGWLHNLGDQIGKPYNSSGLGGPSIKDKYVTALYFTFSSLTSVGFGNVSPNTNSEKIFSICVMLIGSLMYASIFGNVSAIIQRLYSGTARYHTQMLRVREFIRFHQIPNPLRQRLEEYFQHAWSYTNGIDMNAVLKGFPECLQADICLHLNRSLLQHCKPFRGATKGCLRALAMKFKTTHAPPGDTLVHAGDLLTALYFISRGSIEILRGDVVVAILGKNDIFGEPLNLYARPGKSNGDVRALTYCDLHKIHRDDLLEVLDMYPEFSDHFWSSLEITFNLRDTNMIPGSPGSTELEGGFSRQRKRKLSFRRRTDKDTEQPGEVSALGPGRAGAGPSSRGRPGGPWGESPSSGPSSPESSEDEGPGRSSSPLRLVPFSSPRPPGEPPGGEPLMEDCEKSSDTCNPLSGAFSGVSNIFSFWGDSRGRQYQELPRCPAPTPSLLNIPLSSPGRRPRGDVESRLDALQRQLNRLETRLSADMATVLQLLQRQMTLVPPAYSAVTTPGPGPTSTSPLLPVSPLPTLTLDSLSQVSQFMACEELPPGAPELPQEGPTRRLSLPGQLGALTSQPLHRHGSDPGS

Question: CC(C(=O)Nc1nccs1)N1C(=O)c2ccccc2S1(=O)=O (centres unmarked) was tested. Which “hERG current change (%, negative = inhibition) at 10uM” value did it give?
Answer: 11.5%

Question: How did the “hERG current change (%, negative = inhibition) at 10uM” value turn out when COc1ccc(N(C)S(=O)(=O)c2c(C)[nH]c(=O)[nH]c2=O)cc1 was run?
Answer: -2.37%

Question: Which “hERG current change (%, negative = inhibition) at 10uM” value does the source give for CCOC(=O)/C(=N\Nc1ccccc1[N+](=O)[O-])c1csc(Nc2ccccc2)n1 here?
Answer: 17.2%

Question: For COc1ccc(Cc2c(O)nc(SCC(=O)NC(C)(C)C)[nH]c2=O)cc1, which “hERG current change (%, negative = inhibition) at 10uM” value is on record?
Answer: 13.7%

Question: With COc1cc(NC(=S)NCCN2CCOCC2)cc(OC)c1 as the molecule, how does the “hERG current change (%, negative = inhibition) at 10uM” value read?
Answer: 8.78%

Question: CCOC(=O)c1sc2ncn(C(CC)C(=O)OC)c(=O)c2c1C (centres unmarked) was tested. Which “hERG current change (%, negative = inhibition) at 10uM” value did it give?
Answer: 9.35%

Question: COc1ccc(S(=O)(=O)N2CCCN(CC(=O)Nc3ccc(OC)c(Cl)c3)CC2)cc1 was tested. Which “hERG current change (%, negative = inhibition) at 10uM” value did it give?
Answer: -33.3%

Question: With C=CCOc1ccc(CNc2ccc3[nH]c(=O)[nH]c3c2)cc1OCC as the molecule, how does the “hERG current change (%, negative = inhibition) at 10uM” value read?
Answer: 6.6%

Question: Which “hERG current change (%, negative = inhibition) at 10uM” value does the source give for O=C(NCc1ccccc1)C(c1ccccc1)N(C(=O)c1csnn1)C1CCCC1 (centres unmarked) here?
Answer: -8.12%

Question: Cc1cc(=O)oc2cc(OCC(=O)OCC(=O)Nc3ccc4ccccc4c3)ccc12 was tested. Which “hERG current change (%, negative = inhibition) at 10uM” value did it give?
Answer: 14.2%

Question: Which “hERG current change (%, negative = inhibition) at 10uM” value does the source give for Cc1ccc2c(c1)C=CC(C)(C)S2(=O)=O here?
Answer: 17.3%

Question: With Cc1noc(C)c1C(=O)Nc1cccc(S(=O)(=O)N2CCOCC2)c1 as the molecule, how does the “hERG current change (%, negative = inhibition) at 10uM” value read?
Answer: -5.31%

Question: Which “hERG current change (%, negative = inhibition) at 10uM” value does the source give for COc1ccc(CC(=O)NNC(=O)c2nn(Cc3ccccc3)c(=O)c3ccccc23)cc1OC here?
Answer: -9.27%

Question: Which “hERG current change (%, negative = inhibition) at 10uM” value does the source give for Cc1nn(C)c(C(=O)N/N=C/c2ccccc2)c1[N+](=O)[O-] here?
Answer: 6.25%

Question: For CN=C1S/C(=C/c2cn(CC(=O)OC)c3ccccc23)C(=O)N1C, which “hERG current change (%, negative = inhibition) at 10uM” value is on record?
Answer: 11.1%

Question: O=C(O)CCCn1cc(NC(=O)COc2ccc(F)cc2)cn1 was tested. Which “hERG current change (%, negative = inhibition) at 10uM” value did it give?
Answer: 16.5%

Question: With C=C(C)COc1ccc(-c2nc(N)ncc2Oc2ccccc2OC)c(O)c1 as the molecule, how does the “hERG current change (%, negative = inhibition) at 10uM” value read?
Answer: -0.445%

Question: For CCOC(=O)N1CCN(C(=O)CSc2nnc(-c3cccs3)o2)CC1, which “hERG current change (%, negative = inhibition) at 10uM” value is on record?
Answer: -12.4%

Question: With CC(C)(C)c1ccc(-c2n[nH]c(=S)n2/N=C/c2ccncc2)cc1 as the molecule, how does the “hERG current change (%, negative = inhibition) at 10uM” value read?
Answer: 13%

Question: Which “hERG current change (%, negative = inhibition) at 10uM” value does the source give for CN1CCN(C(=S)NC(CC(=O)c2ccccc2)c2ccccc2)CC1 (centres unmarked) here?
Answer: -5.32%

Question: With Clc1cccc(Cl)c1CN1CCN(c2ncccn2)CC1 as the molecule, how does the “hERG current change (%, negative = inhibition) at 10uM” value read?
Answer: 17.6%

Question: With CCOc1ccccc1C(=O)Nc1nnc(COC)s1 as the molecule, how does the “hERG current change (%, negative = inhibition) at 10uM” value read?
Answer: 3.41%

Question: COc1cc(C(=O)O/N=C(\N)c2ccncc2)cc(OC)c1OC was tested. Which “hERG current change (%, negative = inhibition) at 10uM” value did it give?
Answer: -13.3%

Question: How did the “hERG current change (%, negative = inhibition) at 10uM” value turn out when COC(=O)C1CCCCN1C(=O)c1cccc(OC2CCN(C(=O)C3CC3)CC2)c1 (centres unmarked) was run?
Answer: 3.79%

Question: CCCCc1ccc(-c2csc(/C(C#N)=C/c3ccco3)n2)cc1 was tested. Which “hERG current change (%, negative = inhibition) at 10uM” value did it give?
Answer: -9.2%

Question: Which “hERG current change (%, negative = inhibition) at 10uM” value does the source give for CC(C)N1C(=O)CCC1C(=O)N1CCN(c2ccc(F)cc2)CC1 (centres unmarked) here?
Answer: -1.84%

Question: Which “hERG current change (%, negative = inhibition) at 10uM” value does the source give for O=C(CNC(=O)c1cccs1)OCc1ccc(Br)cc1 here?
Answer: -6.43%

Question: How did the “hERG current change (%, negative = inhibition) at 10uM” value turn out when CNC(=O)C1CC(=O)N(Cc2ccc(OC)c(OC)c2)C(=Nc2ccc(OC)cc2)S1 (centres unmarked) was run?
Answer: -6.01%

Question: Which “hERG current change (%, negative = inhibition) at 10uM” value does the source give for Cc1cc(C(=O)CN2C(=O)NC(c3ccccc3)(c3ccccc3)C2=O)c(C)n1Cc1ccccc1 here?
Answer: 1.33%

Question: How did the “hERG current change (%, negative = inhibition) at 10uM” value turn out when O=C(C1Cc2ccccc2CN1S(=O)(=O)c1cccs1)N1CCCCCC1 (centres unmarked) was run?
Answer: -12.5%

Question: How did the “hERG current change (%, negative = inhibition) at 10uM” value turn out when N#Cc1cc2c(nc1SCC(=O)N1CCCCC1)CCCC2 was run?
Answer: -2.52%

Question: For O=C1NC(=O)N(Cc2ccco2)C(=O)/C1=C\c1cccn1CCOc1ccc(Cl)cc1, which “hERG current change (%, negative = inhibition) at 10uM” value is on record?
Answer: 11.1%

Question: For O=C(COC(=O)COc1ccccc1[N+](=O)[O-])Nc1cccc(Br)c1, which “hERG current change (%, negative = inhibition) at 10uM” value is on record?
Answer: 9.05%

Question: How did the “hERG current change (%, negative = inhibition) at 10uM” value turn out when O=C(CCC(=O)c1cccs1)c1cccs1 was run?
Answer: 11.8%

Question: How did the “hERG current change (%, negative = inhibition) at 10uM” value turn out when CCC(C)NC(=O)CSC1=Nc2ccccc2C2=NC(CCC(=O)NCc3ccco3)C(=O)N12 (centres unmarked) was run?
Answer: -1.01%

Question: COc1ccc(CN(C(=O)c2cc(=O)c3ccccc3o2)C2CCS(=O)(=O)C2)cc1OC (centres unmarked) was tested. Which “hERG current change (%, negative = inhibition) at 10uM” value did it give?
Answer: 3.29%

Question: Which “hERG current change (%, negative = inhibition) at 10uM” value does the source give for CC(=O)c1sc(NC(=O)c2cccc(N3C(=O)CCC3=O)c2)nc1-c1ccccc1 here?
Answer: 20%

Question: Cc1[nH]cnc1CSCc1ccc(Cl)cc1.Cl was tested. Which “hERG current change (%, negative = inhibition) at 10uM” value did it give?
Answer: -29%

Question: For Cc1ccc(OCCCCN2CCc3ccccc3C2)cc1.Cl, which “hERG current change (%, negative = inhibition) at 10uM” value is on record?
Answer: -34.9%

Question: Which “hERG current change (%, negative = inhibition) at 10uM” value does the source give for Cc1ccc2c(CC(=O)NCC(=O)Nc3c(C)cccc3C)coc2c1 here?
Answer: 1.13%

Question: C=CCn1c(SCC(=O)Nc2cc(Cl)ccc2C(=O)O)nc2sc(C)c(C)c2c1=O was tested. Which “hERG current change (%, negative = inhibition) at 10uM” value did it give?
Answer: 6.55%

Question: How did the “hERG current change (%, negative = inhibition) at 10uM” value turn out when NC(=O)c1oc2ccccc2c1NC(=O)C1CCCCC1 was run?
Answer: 0.903%

Question: CC(C)CCNC(=O)c1onc(CSc2ccc(Cl)cc2)c1C(=O)NCCC(C)C was tested. Which “hERG current change (%, negative = inhibition) at 10uM” value did it give?
Answer: 24.5%

Question: With O=C(Cc1ccc(Cl)cc1Cl)NCc1cccnc1 as the molecule, how does the “hERG current change (%, negative = inhibition) at 10uM” value read?
Answer: 3.57%

Question: For CC1CCCN(C2=NC(=O)/C(=C/c3cn(-c4ccccc4)nc3-c3cccc(S(=O)(=O)N(C)C)c3)S2)C1 (centres unmarked), which “hERG current change (%, negative = inhibition) at 10uM” value is on record?
Answer: 1.65%

Question: COc1ccc2cc(C(=O)N3CCCCCC3)sc(=O)c2c1OC was tested. Which “hERG current change (%, negative = inhibition) at 10uM” value did it give?
Answer: -1.59%

Question: Which “hERG current change (%, negative = inhibition) at 10uM” value does the source give for Cc1ccc(-c2nc(N)nc(N)n2)c(C)c1 here?
Answer: 13.7%

Question: Which “hERG current change (%, negative = inhibition) at 10uM” value does the source give for CCOc1cc(/C=C2\C(=O)NC(=O)N(CCc3ccc(F)cc3)C2=O)ccc1O here?
Answer: 2.66%

Question: For COc1ccc(/C=C2/CCc3ccccc3C2=O)cc1OC, which “hERG current change (%, negative = inhibition) at 10uM” value is on record?
Answer: -19.8%

Question: With CCOc1ccc(Br)cc1CNCc1cccnc1 as the molecule, how does the “hERG current change (%, negative = inhibition) at 10uM” value read?
Answer: -10.2%

Question: For C#CCCCCCCCCC(=O)NCCCC, which “hERG current change (%, negative = inhibition) at 10uM” value is on record?
Answer: -2.76%

Question: Cc1nc2oc(C(=O)c3ccccc3)c(N)c2c2c1COC(C)(C)C2 was tested. Which “hERG current change (%, negative = inhibition) at 10uM” value did it give?
Answer: 2.84%

Question: With COC(=O)Cc1c[nH]c2ccc(OCC(O)CNC(C)C)cc12.O=C(O)c1ccccc1 (centres unmarked) as the molecule, how does the “hERG current change (%, negative = inhibition) at 10uM” value read?
Answer: 6.06%

Question: With Cc1nn2cnc3sc4c(c3c2nc1=O)CCCC4 as the molecule, how does the “hERG current change (%, negative = inhibition) at 10uM” value read?
Answer: -3.17%

Question: With CCCc1cc(NCCCN(C)C)n2c(nc3ccccc32)c1C#N as the molecule, how does the “hERG current change (%, negative = inhibition) at 10uM” value read?
Answer: 0.382%

Question: How did the “hERG current change (%, negative = inhibition) at 10uM” value turn out when Cn1nc(C(F)(F)F)c(/C=N/OC(=O)c2ccccc2)c1Sc1ccc(Cl)cc1 was run?
Answer: 15.2%
